Assay results reported in article PMC7341970.
No constants are given. Whether binding was seen depends on the method and setting. Binding seen in cells or lysates may run through a third protein. Some entries that bind do so weakly or less than the wild type. For some assays here: Sequences can lack the tags named with a protein. Blank lines part the entries; values can stand above or below the molecule they belong to.

Chains of the proteins cited; added tags and fusions are not shown.
UniProt Q6PDQ2: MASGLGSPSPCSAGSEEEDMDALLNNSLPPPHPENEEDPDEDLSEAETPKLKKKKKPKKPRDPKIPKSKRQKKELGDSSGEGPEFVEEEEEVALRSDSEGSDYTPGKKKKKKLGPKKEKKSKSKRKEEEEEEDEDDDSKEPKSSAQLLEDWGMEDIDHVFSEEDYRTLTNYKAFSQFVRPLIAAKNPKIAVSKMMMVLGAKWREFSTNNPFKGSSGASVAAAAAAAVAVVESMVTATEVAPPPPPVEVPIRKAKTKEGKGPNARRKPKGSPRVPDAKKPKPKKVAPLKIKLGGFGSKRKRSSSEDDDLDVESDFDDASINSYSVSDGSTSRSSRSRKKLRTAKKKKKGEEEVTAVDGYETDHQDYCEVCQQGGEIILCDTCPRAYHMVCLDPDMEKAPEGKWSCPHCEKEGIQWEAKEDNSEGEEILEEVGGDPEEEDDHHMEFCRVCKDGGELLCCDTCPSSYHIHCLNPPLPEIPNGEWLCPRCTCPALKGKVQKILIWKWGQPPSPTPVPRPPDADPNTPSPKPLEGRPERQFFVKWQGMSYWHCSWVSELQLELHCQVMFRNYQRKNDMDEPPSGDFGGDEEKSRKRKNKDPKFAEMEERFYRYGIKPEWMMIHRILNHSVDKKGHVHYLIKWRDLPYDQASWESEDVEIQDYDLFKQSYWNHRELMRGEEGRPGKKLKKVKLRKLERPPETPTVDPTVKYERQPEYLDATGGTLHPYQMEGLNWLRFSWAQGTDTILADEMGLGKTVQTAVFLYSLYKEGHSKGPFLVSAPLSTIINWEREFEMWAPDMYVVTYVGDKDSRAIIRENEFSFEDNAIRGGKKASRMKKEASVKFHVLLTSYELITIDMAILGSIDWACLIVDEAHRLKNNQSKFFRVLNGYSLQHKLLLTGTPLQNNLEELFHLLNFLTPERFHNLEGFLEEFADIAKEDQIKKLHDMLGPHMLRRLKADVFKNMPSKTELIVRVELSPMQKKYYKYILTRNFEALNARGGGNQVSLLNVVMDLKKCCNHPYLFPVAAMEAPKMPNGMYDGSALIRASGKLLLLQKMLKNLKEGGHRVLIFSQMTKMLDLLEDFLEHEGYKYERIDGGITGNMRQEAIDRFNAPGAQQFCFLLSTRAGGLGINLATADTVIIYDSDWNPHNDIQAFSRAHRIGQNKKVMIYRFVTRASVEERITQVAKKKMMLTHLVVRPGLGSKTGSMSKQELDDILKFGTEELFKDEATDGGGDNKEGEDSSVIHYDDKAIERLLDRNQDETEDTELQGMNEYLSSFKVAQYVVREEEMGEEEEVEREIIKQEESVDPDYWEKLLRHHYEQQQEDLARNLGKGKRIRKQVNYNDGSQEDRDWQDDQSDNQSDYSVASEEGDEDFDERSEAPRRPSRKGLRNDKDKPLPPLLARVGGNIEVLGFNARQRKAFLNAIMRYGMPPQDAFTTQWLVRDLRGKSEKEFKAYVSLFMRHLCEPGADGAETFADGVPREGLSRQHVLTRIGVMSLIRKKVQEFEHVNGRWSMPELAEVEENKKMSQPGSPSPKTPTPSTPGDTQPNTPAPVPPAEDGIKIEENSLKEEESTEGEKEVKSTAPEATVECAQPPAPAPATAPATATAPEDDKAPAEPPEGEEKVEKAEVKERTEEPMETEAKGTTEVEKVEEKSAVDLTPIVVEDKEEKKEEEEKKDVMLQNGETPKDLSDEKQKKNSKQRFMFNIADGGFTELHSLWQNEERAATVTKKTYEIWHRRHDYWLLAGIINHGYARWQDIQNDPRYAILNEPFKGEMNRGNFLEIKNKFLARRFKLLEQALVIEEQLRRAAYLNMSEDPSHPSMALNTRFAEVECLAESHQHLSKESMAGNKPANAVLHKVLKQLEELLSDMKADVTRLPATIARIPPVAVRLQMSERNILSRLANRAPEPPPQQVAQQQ
UniProt Q3TKT4: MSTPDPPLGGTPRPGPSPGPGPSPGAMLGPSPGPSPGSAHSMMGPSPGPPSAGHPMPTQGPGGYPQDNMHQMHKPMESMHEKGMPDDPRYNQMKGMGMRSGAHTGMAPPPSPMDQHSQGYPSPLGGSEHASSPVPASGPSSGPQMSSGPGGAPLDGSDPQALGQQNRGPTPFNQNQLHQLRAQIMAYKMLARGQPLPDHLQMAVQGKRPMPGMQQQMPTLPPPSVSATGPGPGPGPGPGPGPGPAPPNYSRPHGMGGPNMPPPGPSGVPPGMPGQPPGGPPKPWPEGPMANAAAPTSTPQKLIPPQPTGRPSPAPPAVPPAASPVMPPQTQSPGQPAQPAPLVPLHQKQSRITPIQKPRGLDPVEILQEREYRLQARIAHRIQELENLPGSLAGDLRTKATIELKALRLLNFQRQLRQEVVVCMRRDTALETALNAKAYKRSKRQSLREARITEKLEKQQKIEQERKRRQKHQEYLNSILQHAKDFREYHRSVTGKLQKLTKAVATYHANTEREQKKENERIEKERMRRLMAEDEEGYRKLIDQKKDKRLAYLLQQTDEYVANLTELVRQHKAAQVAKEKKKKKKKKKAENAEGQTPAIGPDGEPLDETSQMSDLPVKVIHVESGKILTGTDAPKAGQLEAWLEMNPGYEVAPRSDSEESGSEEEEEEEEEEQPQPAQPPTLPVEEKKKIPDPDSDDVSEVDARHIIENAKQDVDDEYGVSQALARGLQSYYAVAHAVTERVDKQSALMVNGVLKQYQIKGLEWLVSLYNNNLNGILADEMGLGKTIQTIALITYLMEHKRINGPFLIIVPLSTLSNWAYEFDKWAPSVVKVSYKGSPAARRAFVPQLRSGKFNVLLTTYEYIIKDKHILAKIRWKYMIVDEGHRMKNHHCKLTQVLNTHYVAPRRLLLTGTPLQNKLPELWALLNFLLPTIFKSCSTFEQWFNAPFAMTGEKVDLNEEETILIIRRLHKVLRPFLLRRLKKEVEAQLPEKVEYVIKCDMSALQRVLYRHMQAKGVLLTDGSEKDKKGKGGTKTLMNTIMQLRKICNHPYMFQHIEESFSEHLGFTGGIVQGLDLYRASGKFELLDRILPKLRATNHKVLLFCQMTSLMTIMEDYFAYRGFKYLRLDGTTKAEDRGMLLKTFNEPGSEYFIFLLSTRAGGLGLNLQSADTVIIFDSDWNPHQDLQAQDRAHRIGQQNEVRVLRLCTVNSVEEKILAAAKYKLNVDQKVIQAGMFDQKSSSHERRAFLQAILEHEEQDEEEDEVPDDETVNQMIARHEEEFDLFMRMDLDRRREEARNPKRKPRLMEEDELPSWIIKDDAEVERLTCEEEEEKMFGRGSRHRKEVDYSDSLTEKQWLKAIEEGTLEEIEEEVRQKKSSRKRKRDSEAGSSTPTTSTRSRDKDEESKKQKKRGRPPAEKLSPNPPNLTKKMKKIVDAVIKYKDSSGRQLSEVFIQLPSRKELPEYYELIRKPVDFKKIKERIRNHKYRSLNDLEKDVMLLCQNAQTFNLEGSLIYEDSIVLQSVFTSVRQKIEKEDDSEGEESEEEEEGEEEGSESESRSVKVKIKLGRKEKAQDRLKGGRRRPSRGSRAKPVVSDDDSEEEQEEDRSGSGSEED
UniProt A2BH40: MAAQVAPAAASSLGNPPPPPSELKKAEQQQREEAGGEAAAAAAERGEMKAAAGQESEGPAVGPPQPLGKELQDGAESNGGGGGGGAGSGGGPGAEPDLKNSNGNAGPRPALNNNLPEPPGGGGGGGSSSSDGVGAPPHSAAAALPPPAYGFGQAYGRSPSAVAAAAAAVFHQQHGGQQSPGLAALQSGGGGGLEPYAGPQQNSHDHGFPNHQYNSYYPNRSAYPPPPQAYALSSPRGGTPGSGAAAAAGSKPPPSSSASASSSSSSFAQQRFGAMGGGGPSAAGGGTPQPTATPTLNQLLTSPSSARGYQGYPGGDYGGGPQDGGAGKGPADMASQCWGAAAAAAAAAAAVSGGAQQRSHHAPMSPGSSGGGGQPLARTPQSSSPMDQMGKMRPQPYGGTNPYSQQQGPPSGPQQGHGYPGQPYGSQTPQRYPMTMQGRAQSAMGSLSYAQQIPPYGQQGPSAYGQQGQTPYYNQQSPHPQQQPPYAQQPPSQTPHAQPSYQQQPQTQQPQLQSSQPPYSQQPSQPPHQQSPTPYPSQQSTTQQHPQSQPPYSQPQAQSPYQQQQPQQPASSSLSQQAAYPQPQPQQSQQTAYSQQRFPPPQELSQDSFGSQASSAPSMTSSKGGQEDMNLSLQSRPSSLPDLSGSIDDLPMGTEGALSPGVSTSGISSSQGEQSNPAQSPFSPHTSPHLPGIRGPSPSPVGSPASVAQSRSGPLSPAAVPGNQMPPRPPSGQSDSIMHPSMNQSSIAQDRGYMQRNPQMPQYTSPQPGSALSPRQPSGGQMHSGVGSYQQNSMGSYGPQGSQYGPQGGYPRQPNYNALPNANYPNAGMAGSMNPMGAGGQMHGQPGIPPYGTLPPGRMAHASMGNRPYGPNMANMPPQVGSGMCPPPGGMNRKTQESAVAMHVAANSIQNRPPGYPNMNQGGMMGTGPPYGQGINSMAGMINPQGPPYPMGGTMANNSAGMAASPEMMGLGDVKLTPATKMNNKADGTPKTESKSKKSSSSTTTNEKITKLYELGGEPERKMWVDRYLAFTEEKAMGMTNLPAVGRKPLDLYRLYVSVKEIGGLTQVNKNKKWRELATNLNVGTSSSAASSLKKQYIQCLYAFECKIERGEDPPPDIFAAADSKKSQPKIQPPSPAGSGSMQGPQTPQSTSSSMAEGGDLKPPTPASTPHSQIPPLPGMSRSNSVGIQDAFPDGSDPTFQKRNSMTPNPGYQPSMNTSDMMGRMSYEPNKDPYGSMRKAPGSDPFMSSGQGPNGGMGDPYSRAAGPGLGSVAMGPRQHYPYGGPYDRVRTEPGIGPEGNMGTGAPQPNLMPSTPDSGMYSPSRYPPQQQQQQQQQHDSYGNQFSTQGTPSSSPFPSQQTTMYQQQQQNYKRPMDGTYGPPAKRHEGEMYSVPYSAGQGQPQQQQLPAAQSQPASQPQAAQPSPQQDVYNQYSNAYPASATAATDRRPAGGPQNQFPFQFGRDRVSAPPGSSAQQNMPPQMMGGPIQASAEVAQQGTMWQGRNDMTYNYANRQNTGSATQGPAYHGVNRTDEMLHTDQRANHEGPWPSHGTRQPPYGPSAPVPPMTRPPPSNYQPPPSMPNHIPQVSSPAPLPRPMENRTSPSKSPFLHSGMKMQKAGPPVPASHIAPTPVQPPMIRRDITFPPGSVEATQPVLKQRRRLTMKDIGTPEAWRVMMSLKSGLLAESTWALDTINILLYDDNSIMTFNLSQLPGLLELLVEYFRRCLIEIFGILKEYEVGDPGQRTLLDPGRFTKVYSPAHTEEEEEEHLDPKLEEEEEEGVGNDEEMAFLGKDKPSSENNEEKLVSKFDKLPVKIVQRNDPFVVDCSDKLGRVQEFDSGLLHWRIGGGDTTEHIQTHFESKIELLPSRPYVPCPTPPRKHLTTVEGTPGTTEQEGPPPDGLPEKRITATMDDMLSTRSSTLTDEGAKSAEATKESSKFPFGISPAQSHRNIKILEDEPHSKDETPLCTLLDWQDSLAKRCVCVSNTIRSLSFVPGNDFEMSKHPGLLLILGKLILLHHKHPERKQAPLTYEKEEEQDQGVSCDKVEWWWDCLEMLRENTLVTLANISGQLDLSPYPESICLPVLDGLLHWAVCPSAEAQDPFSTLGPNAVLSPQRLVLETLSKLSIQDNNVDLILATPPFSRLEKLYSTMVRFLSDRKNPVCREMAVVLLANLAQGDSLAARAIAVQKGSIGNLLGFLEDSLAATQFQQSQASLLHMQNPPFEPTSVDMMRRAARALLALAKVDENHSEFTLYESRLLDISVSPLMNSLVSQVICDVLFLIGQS

Assays:
[1] = molecular target: T1, 3 × FLAG-tagged ADNP (full length), induced in Adnp-/- mESCs (mouse) (UniProt Q9Z103); assay: co-IP; first round of sequential IP: anti-FLAG Dynabeads on lysate of 3 × FLAG-ADNP Adnp-/- mESCs (10 μM MG132 for 3 h), overnight at 4°C
T1 sequence: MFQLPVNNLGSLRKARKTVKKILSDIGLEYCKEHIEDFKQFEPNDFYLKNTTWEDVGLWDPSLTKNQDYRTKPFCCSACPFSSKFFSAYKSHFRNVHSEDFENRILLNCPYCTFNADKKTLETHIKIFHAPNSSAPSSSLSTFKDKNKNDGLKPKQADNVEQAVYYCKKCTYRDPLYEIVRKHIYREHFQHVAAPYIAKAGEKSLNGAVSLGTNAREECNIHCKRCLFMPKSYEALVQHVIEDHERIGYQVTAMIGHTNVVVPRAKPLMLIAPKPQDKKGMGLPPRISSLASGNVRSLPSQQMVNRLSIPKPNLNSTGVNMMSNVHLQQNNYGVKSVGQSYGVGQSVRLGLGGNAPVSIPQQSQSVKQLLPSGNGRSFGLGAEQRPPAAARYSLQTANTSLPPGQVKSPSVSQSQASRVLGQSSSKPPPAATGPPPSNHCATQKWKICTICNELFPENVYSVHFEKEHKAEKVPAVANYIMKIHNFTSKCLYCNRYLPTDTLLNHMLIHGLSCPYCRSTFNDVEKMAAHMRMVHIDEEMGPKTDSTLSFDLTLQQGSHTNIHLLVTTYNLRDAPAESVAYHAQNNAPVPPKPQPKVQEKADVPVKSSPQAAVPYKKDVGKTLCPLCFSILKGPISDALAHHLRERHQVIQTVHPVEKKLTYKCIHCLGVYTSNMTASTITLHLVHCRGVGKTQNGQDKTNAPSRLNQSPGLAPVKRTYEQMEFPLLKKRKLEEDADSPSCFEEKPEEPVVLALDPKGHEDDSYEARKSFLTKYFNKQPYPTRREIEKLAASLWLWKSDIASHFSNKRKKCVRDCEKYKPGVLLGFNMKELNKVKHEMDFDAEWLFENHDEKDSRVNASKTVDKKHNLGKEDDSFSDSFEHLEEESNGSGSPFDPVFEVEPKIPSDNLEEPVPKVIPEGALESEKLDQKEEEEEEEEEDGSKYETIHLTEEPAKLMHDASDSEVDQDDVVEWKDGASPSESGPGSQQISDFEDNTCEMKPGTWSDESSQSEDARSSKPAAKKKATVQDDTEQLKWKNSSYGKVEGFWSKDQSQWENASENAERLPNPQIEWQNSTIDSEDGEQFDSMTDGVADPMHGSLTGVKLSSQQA

[2] = molecular target: CHD4, endogenous (mouse (endogenous in mESCs)) (UniProt Q6PDQ2); assay: co-IP; second round of sequential IP: complexes eluted from anti-FLAG beads with 3 × FLAG peptide, re-precipitated with CHD4 antibody, Western blot
[3] = molecular target: BRG1, endogenous (mouse (endogenous in mESCs)) (UniProt Q3TKT4); assay: co-IP; endogenous proteins in mESCs; whole cell lysate on antibody-coupled Dynabeads Protein G overnight at 4°C, Western blot
[4] = molecular target: BAF250a, endogenous (mouse (endogenous in mESCs)) (UniProt A2BH40); assay: as above

B1: 3 × FLAG-tagged ADNP (full length), induced in Adnp-/- mESCs (protein, UniProt Q9Z103 1-1108)
chain: MFQLPVNNLGSLRKARKTVKKILSDIGLEYCKEHIEDFKQFEPNDFYLKNTTWEDVGLWDPSLTKNQDYRTKPFCCSACPFSSKFFSAYKSHFRNVHSEDFENRILLNCPYCTFNADKKTLETHIKIFHAPNSSAPSSSLSTFKDKNKNDGLKPKQADNVEQAVYYCKKCTYRDPLYEIVRKHIYREHFQHVAAPYIAKAGEKSLNGAVSLGTNAREECNIHCKRCLFMPKSYEALVQHVIEDHERIGYQVTAMIGHTNVVVPRAKPLMLIAPKPQDKKGMGLPPRISSLASGNVRSLPSQQMVNRLSIPKPNLNSTGVNMMSNVHLQQNNYGVKSVGQSYGVGQSVRLGLGGNAPVSIPQQSQSVKQLLPSGNGRSFGLGAEQRPPAAARYSLQTANTSLPPGQVKSPSVSQSQASRVLGQSSSKPPPAATGPPPSNHCATQKWKICTICNELFPENVYSVHFEKEHKAEKVPAVANYIMKIHNFTSKCLYCNRYLPTDTLLNHMLIHGLSCPYCRSTFNDVEKMAAHMRMVHIDEEMGPKTDSTLSFDLTLQQGSHTNIHLLVTTYNLRDAPAESVAYHAQNNAPVPPKPQPKVQEKADVPVKSSPQAAVPYKKDVGKTLCPLCFSILKGPISDALAHHLRERHQVIQTVHPVEKKLTYKCIHCLGVYTSNMTASTITLHLVHCRGVGKTQNGQDKTNAPSRLNQSPGLAPVKRTYEQMEFPLLKKRKLEEDADSPSCFEEKPEEPVVLALDPKGHEDDSYEARKSFLTKYFNKQPYPTRREIEKLAASLWLWKSDIASHFSNKRKKCVRDCEKYKPGVLLGFNMKELNKVKHEMDFDAEWLFENHDEKDSRVNASKTVDKKHNLGKEDDSFSDSFEHLEEESNGSGSPFDPVFEVEPKIPSDNLEEPVPKVIPEGALESEKLDQKEEEEEEEEEDGSKYETIHLTEEPAKLMHDASDSEVDQDDVVEWKDGASPSESGPGSQQISDFEDNTCEMKPGTWSDESSQSEDARSSKPAAKKKATVQDDTEQLKWKNSSYGKVEGFWSKDQSQWENASENAERLPNPQIEWQNSTIDSEDGEQFDSMTDGVADPMHGSLTGVKLSSQQA
binding [2]: binds

B2: Activity Dependent Neuroprotective Protein (ADNP), endogenous (protein, UniProt Q9Z103 1-1108)
chain: MFQLPVNNLGSLRKARKTVKKILSDIGLEYCKEHIEDFKQFEPNDFYLKNTTWEDVGLWDPSLTKNQDYRTKPFCCSACPFSSKFFSAYKSHFRNVHSEDFENRILLNCPYCTFNADKKTLETHIKIFHAPNSSAPSSSLSTFKDKNKNDGLKPKQADNVEQAVYYCKKCTYRDPLYEIVRKHIYREHFQHVAAPYIAKAGEKSLNGAVSLGTNAREECNIHCKRCLFMPKSYEALVQHVIEDHERIGYQVTAMIGHTNVVVPRAKPLMLIAPKPQDKKGMGLPPRISSLASGNVRSLPSQQMVNRLSIPKPNLNSTGVNMMSNVHLQQNNYGVKSVGQSYGVGQSVRLGLGGNAPVSIPQQSQSVKQLLPSGNGRSFGLGAEQRPPAAARYSLQTANTSLPPGQVKSPSVSQSQASRVLGQSSSKPPPAATGPPPSNHCATQKWKICTICNELFPENVYSVHFEKEHKAEKVPAVANYIMKIHNFTSKCLYCNRYLPTDTLLNHMLIHGLSCPYCRSTFNDVEKMAAHMRMVHIDEEMGPKTDSTLSFDLTLQQGSHTNIHLLVTTYNLRDAPAESVAYHAQNNAPVPPKPQPKVQEKADVPVKSSPQAAVPYKKDVGKTLCPLCFSILKGPISDALAHHLRERHQVIQTVHPVEKKLTYKCIHCLGVYTSNMTASTITLHLVHCRGVGKTQNGQDKTNAPSRLNQSPGLAPVKRTYEQMEFPLLKKRKLEEDADSPSCFEEKPEEPVVLALDPKGHEDDSYEARKSFLTKYFNKQPYPTRREIEKLAASLWLWKSDIASHFSNKRKKCVRDCEKYKPGVLLGFNMKELNKVKHEMDFDAEWLFENHDEKDSRVNASKTVDKKHNLGKEDDSFSDSFEHLEEESNGSGSPFDPVFEVEPKIPSDNLEEPVPKVIPEGALESEKLDQKEEEEEEEEEDGSKYETIHLTEEPAKLMHDASDSEVDQDDVVEWKDGASPSESGPGSQQISDFEDNTCEMKPGTWSDESSQSEDARSSKPAAKKKATVQDDTEQLKWKNSSYGKVEGFWSKDQSQWENASENAERLPNPQIEWQNSTIDSEDGEQFDSMTDGVADPMHGSLTGVKLSSQQA
binding [3]: binds
binding [4]: no binding

Now from value to molecule:

binding [1]: binds
Molecule: CHD4, endogenous (from UniProt Q6PDQ2 1-1915)

binding [1]: binds
Molecule: BRG1, endogenous (from UniProt Q3TKT4 1-1613)
